This note sets out measurements from PMC4336329 (PLoS ONE, 2015).

Each structure is given as a SMILES string. Screen size: about 310,000 compounds; about 14,000 (4.5%) showed an effect of 50% or more. Effects have a minus sign here. The list shows a part of the results.
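Also: peak tail current of the secondary pulse compared with the same well before compound.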

In the assay the target is human ether-à-go-go-related gene (hERG) potassium channel (human, UniProt Q12809). Nature of the assay: primary screen, population patch clamp on CHO cells stably expressing hERG.
Chain of human ether-à-go-go-related gene (hERG) potassium channel (Q12809 whole entry, looked up): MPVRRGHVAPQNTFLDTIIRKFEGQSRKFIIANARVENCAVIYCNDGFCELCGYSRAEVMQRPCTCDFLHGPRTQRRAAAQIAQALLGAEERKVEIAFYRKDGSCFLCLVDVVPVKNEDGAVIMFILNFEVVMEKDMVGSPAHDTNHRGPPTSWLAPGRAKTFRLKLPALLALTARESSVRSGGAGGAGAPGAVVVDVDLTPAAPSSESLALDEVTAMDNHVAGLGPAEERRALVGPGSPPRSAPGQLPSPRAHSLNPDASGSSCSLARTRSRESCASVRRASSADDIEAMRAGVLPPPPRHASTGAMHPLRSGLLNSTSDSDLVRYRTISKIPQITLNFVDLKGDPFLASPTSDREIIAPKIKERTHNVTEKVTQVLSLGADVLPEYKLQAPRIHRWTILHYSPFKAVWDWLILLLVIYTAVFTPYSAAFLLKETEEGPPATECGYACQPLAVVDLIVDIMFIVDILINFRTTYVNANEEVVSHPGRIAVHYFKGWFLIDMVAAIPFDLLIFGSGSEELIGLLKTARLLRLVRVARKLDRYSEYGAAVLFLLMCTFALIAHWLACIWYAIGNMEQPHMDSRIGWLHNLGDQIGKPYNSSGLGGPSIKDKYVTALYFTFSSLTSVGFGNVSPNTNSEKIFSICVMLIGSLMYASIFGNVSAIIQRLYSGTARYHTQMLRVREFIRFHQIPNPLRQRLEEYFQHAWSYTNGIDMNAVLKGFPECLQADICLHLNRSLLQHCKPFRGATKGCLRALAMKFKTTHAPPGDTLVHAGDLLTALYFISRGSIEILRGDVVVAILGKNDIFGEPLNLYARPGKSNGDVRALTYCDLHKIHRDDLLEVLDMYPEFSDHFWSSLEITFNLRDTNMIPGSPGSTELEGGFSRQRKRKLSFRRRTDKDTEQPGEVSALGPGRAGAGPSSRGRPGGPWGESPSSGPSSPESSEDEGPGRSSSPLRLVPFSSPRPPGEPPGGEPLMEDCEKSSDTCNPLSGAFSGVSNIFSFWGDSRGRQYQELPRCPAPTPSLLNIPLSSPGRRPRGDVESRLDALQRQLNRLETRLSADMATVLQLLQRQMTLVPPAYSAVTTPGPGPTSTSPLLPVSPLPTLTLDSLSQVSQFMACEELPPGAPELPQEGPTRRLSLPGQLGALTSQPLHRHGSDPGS
For the molecule `CCN1/C(=C/c2ccc3ccc(C)cc3[n+]2CC)Sc2ccccc21.[I-]`, the “hERG current change (%, negative = inhibition) at 10uM” value is given as -81.1%. Turning to `COc1cc(OC)nc(Oc2cc(C=O)ccc2OC)n1`, the “hERG current change (%, negative = inhibition) at 10uM” value is -3.55%. With `Cc1ccccc1Nc1cc(C)c2c(O)cccc2n1` the figure was -20.2%. For the molecule `O=C(Cn1nnc(-c2cccc(C(F)(F)F)c2)n1)N1CCCCCC1`, the “hERG current change (%, negative = inhibition) at 10uM” value was -15.7%.

Turning to `O=C(Nc1ccccn1)c1ccc(=O)[nH]n1`, the “hERG current change (%, negative = inhibition) at 10uM” value is -0.517%. For `CC1CC2(O)c3nonc3CCC2N1O` (stereo not drawn), the “hERG current change (%, negative = inhibition) at 10uM” value was -14.8%. Turning to `CSc1ccccc1-c1nnc(NC(=O)Cc2ccccc2)o1`, the “hERG current change (%, negative = inhibition) at 10uM” value is on record as 11.5%. Take `Cc1ccc(S(C)(=O)=O)cc1S(=O)(=O)Nc1cccc(Cl)c1`: the “hERG current change (%, negative = inhibition) at 10uM” value is on record as -5.71%. In the case of `COc1cc(S(=O)(=O)Nc2cccc(C)c2)ccc1N=Cc1c(C)[nH]n(-c2ccccc2)c1=O` it was 9.66%; in that of `COc1ccc(-c2nn(-c3ccccc3)cc2/C=C/C(=O)N2CCOCC2)cc1OC`, -20.4%. With `CCOc1ccc(-c2nc(CS(=O)(=O)CC(=O)NCc3ccc(F)cc3)c(C)o2)cc1` the figure was 17.8%.

Consider `O=C(Nc1ccc(N2CCCCC2)cc1)c1ccc([N+](=O)[O-])o1`, for which the “hERG current change (%, negative = inhibition) at 10uM” value is reported as -10.1%. For the molecule `CCn1c(C)c(C)c2cc(C(=O)N3CCN(c4ccccc4)CC3)ccc21`, the “hERG current change (%, negative = inhibition) at 10uM” value is given as -3.23%. With `COc1ccc(N2CCN(c3ccc(NC(=O)c4ccc5c(c4)OCO5)cc3C#N)CC2)cc1`, the “hERG current change (%, negative = inhibition) at 10uM” value came to 6.54%.

Regarding `O=C(c1cccc([N+](=O)[O-])c1)N1CCN(c2ncccn2)CC1`, the “hERG current change (%, negative = inhibition) at 10uM” value is reported as -8.55%. For `COC(=O)c1sc(NC(=O)COc2ccccc2)nc1C`, the “hERG current change (%, negative = inhibition) at 10uM” value was found to be 0.918%. Turning to `CCOc1ccc(S(=O)(=O)Nc2ccc(C(=O)NCc3ccncc3)cc2)cc1`, the “hERG current change (%, negative = inhibition) at 10uM” value was -22.2%. In the case of `CCNS(=O)(=O)c1ccc(NS(=O)(=O)c2cc(C)ccc2C)cc1` it was -1.2%; in that of `Cc1ccc(F)c(CNC(=O)C2CCC(=O)N(Cc3ccccn3)C2)c1F` (stereo not drawn), 20%; in that of `O=C(NCc1ccccn1)c1cccs1`, 12%. For `O=C(NCc1ccccc1)Nc1cccn(Cc2ccccc2F)c1=O`, the “hERG current change (%, negative = inhibition) at 10uM” value is 6.42%.

In the case of `C=CCOc1cccc(/C=N/NC(=O)CN2CCCCC2)c1`, the “hERG current change (%, negative = inhibition) at 10uM” value was -38.4%.

Take `COc1cc(/C=C2/C(=N)N3OC(C)=CC3=NC2=O)ccc1OC(=O)c1ccco1`: the “hERG current change (%, negative = inhibition) at 10uM” value is 29.8%. For `O=C(N1CCOCCOc2ccccc2OCCOCC1)C(F)(F)F`, the “hERG current change (%, negative = inhibition) at 10uM” value was 6.2%. With `CCOC(=O)C1=C(COc2ccccc2)NC(=O)NC1c1cccc([N+](=O)[O-])c1` (stereo not drawn) the figure was 4.42%. Regarding `C/C(N)=C(/C#N)C(=O)CSc1ccc2c(c1)OCCO2`, the “hERG current change (%, negative = inhibition) at 10uM” value stood at 5.19%. With `COc1ccc(-c2cc(C(F)(F)F)nc(S(C)(=O)=O)n2)cc1` the figure was -27.1%; with `O=C(Nc1ccccc1)c1ccccc1NC(=O)C(F)(F)F`, 7.06%; with `CCCN1CCN(CC(=O)Nc2nc3ccccc3s2)CC1`, -49.9%. Consider `CCOc1ccc2c(c1)C(=O)C(=O)N2CC1COc2ccccc2O1` (stereo not drawn), for which the “hERG current change (%, negative = inhibition) at 10uM” value amounted to 20.4%. In the case of `CC(=O)Nc1ccc(SCC(=O)N(C)C2CCS(=O)(=O)C2)cc1` (stereo not drawn) it was 8.48%. With `CCN(CC)S(=O)(=O)c1cccc(-c2nn(-c3ccccc3)cc2/C=C(\C#N)C(=O)NCc2ccco2)c1` the figure was 4.77%; with `COC(=O)/C=C1/S/C(=N/N=C/c2ccc(N(C)C)cc2)NC1=O`, 13.1%; with `O=C(c1cccc(F)c1)N1CCN(S(=O)(=O)Cc2ccccc2)CC1`, 6.14%. As for `Cc1cc(=O)n2c3ccccc3n(CC(O)CN3CCN(CCO)CC3)c2c1C#N` (stereo not drawn), the “hERG current change (%, negative = inhibition) at 10uM” value is -16%. In the case of `Cc1ccccc1S(=O)(=O)Cc1ccc(C(=O)NC2CCC(C)CC2)o1` (stereo not drawn) it was 8.03%; in that of `Cc1ccc(C(=O)NNC(=O)CCN2C(=O)C3CCCCC3C2=O)cc1` (stereo not drawn), -5.88%. In the case of `CN(CCOc1ccccc1)CC(=O)Nc1cccc(Br)c1.O=C(O)C(=O)O` it was -3.94%; in that of `COc1ccc2c(C(=O)CN3CC(C)OC(C)C3)c[nH]c2c1` (stereo not drawn), 15.3%; in that of `Cl.NC(=NCCc1ccccc1)NC(=O)c1cc(Cl)ccc1O`, -2.39%.

In the case of `Cc1ccc(/C=N/c2sc3c(c2C(N)=O)CCCC3)o1`, the “hERG current change (%, negative = inhibition) at 10uM” value is given as 23.3%.

As for `CCc1ccc2nc(NC(=O)c3ccc(N4C(=O)CCC4=O)cc3)sc2c1`, the “hERG current change (%, negative = inhibition) at 10uM” value is 17.2%.

As to `Cn1c(-c2ccc(=O)[nH]c2)nc2ccccc21`, the “hERG current change (%, negative = inhibition) at 10uM” value was -0.793%. In the case of `COc1ccc(NC2CCCN(C(=O)c3ccc(OC)o3)C2)cc1` (stereo not drawn) it was 7.3%.

As for `O=C(COc1ccccc1Cl)NCCNC(=O)c1ccccn1`, the “hERG current change (%, negative = inhibition) at 10uM” value was 22.6%.
